Reference: PubChem BioAssay (NCI)
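Growth conditions: 96-well plates. Treatment: test compound, 48 hours, 5 concentrations. Analysis: linear interpolation between bracketing concentrations; unreached endpoints set to highest concentration. At the GI50, growth is halved. At the TGI there is no net growth.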

system: NCI-H322M lung; assay: inhibition of tumour cell growth, NCI panel, 48 h

Row | Compound | GI50 [µM] | TGI [µM]
1 | CCN(CC)c1ccc(/C=N/NC(=O)CSc2nc3ccccc3c(=O)n2Cc2ccc(S(N)(=O)=O)cc2)c(O)c1 | 0.575 | > 100
2 | CC(C)=C[C@@H]1O[C@H](O)[C@@H]([C@H]2CC[C@@]3(C)[C@@H]4CC[C@H]5C(C)(C)C(=O)CC[C@@]56C[C@@]46CC[C@]23C)[C@@H]1O |  | 35.4
3 | N#C/C(=C\c1ccccc1)C(NO)Nc1ccccc1 (configuration not stated) |  | > 100
4 | Nc1ccccc1C(=O)NC(=O)Nc1ccc(Oc2ncc(Br)cn2)c(Cl)c1 |  | 48.5
5 | CCCCN1C(=O)/C(=c2\sc3n(c2=O)C2C(NN=3)N(CC)C(=O)N2CC)c2ccccc21 (configuration not stated) | 1.64 | > 100
6 | C[C@H](NC(=O)c1c(C(F)F)nn(C)c1Oc1cccc(C(F)(F)F)c1)c1ccc(C(=O)O)cc1 | > 100 | > 100
7 | Cc1ccc(C(=O)N/N=C2/C(=O)c3c4ccccc4cc4cccc2c34)cc1 |  | > 100
8 | O=C(Oc1ccccc1)C(Br)C(Br)c1ccccc1 (configuration not stated) | 14.2 | 27.5
9 | CC(=O)n1nc(-c2ccc3ccccc3c2)nc1C |  | > 100
10 | Cc1cc2c(cc1CO)N1Cc3cc(C)c(CO)cc3N(C2)C1 |  | > 100
11 | O=C(/C(=N/Nc1ccccc1)c1ccc([N+](=O)[O-])cc1)c1ccc([N+](=O)[O-])cc1 |  | > 100
12 | COc1cc(CN(c2ccc(C)cc2)C2OC(=O)c3ccccc32)cc(OC)c1OC (configuration not stated) |  | > 100
13 | CCC[CH2][Sn]([CH2]CCC)([CH2]CCC)[O]C(=O)C(OC)c1ccccc1 (configuration not stated) | 0.152 | 0.346
14 | COc1ccc(/C=C/C(=O)Oc2ccccc2OC)cc1 |  | > 100
15 | COCOc1cc(OC)ccc1C/C(=N/O)C(=O)OC |  | > 100
16 | S=C(CSc1ccccc1)Nc1cccc2ccccc12 |  | > 100
17 | C/C(=N\NC(N)=S)c1sc(-n2nc(-c3ccccc3)cc2-c2ccccc2)nc1C |  | > 100
18 | COc1ccc(-c2nsc3c2NC(=O)CC3c2cccc(Cl)c2)cc1 (configuration not stated) | 6.29 | > 100
19 | C=CCCC(=O)C(=[N+]=[N-])C(=O)CCC(=O)c1ccccc1 |  | > 10
20 | C=C(CO)CC(/C=C(\C)CC/C=C(\C)CCl)OC(C)=O (configuration not stated) |  | > 100
21 | COC[C@H]1C(=O)NCC(=O)N2N=CCC[C@H]2C(=O)N(O)[C@H](C)C(=O)O[C@@H](C(C)C)[C@H](NC(=O)[C@@](C)(O)[C@]2(O)CC[C@@H](CC(C)C)[C@H](C)O2)C(=O)N2NCCC[C@@H]2C(=O)N1O |  | 0.0422
22 | O=c1[nH]nc(-c2ccc(F)cc2)cc1-c1ccccc1 |  | > 100
23 | CCc1nc2cc(/C=C/C(=O)NO)ccc2c(=O)n1CCc1ccc(OC)cc1 | 2.92 | 41.6
24 | Cc1ccc(S(=O)(=O)NC(=O)NC(CCC(N)=O)C(=O)O)cc1 (configuration not stated) |  | > 100
25 | COc1ccc2oc(C(=O)N3CC(CCl)c4ccc(N)cc43)cc2c1 (configuration not stated) |  | 29.3
26 | Cc1nc(Sc2nc3ccc([N+](=O)[O-])cc3s2)sc1C | 5.87 | 19.8

Row | Compound | GI50 [µM] | TGI [µM]
27 | COc1cc(OC)c(OC)cc1/C=C/c1cc[n+](C)c2ccccc12 |  | > 100
28 | COc1cc(OC)c(C2(c3c(OC(C)C)c(=O)c3=O)SCCCS2)cc1OC |  | > 100
29 | Cc1cc(C)nc(NS(=O)(=O)c2ccc(NC(=O)c3cc([N+](=O)[O-])cc([N+](=O)[O-])c3)cc2)n1 |  | > 100
30 | C/C(CC(=O)Nc1ccc(NC(=O)C/C(C)=N\NC(N)=O)cc1)=N/NC(N)=O |  | > 100
31 | CN1NC(c2ccccc2)=C(C#N)C(=O)CC1c1ccc(Br)cc1 (configuration not stated) |  | > 100
32 | [N-]=[N+]=Nc1ccc2c(c1)Sc1ccccc1N2CCCCN1CCN(C(=O)CCNC(=O)Cc2ccc(C(=O)c3ccccc3)cc2)CC1 |  | > 71
33 | CC(=O)c1c(O)n(-c2ccc(C)cc2)c(=O)c2c(N)n[nH]c12 |  | > 100
34 | C1=NCCOCCN=Cc2ccc(cc2)OCc2cccc(n2)COc2ccc1cc2 |  | > 100
35 | COC(=O)[C@H](Cc1c[nH]c2ccccc12)NC(=O)c1ccccc1I |  | 52.3
36 | CC(C)C(=S)N(C)O |  | > 100
37 | C=CCn1c(-c2ccc(Cl)cc2)csc1=Nc1ccccc1OC |  | > 100
38 | COC(=O)CCC(=O)N1CC1C (configuration not stated) |  | > 100
39 | Cc1cn(C2OC(CO)C(O)C2F)c(=O)[nH]c1=O (configuration not stated) |  | > 100
40 | Cc1ccccc1N=Nc1c(-c2ccccc2)nn(C(=O)CC(=O)Nc2cccc(Cl)c2)c1-c1ccccc1 |  | > 31.6
41 | CCOC(=O)/C=C(/C(=O)OCC)n1ccc(=O)n(Cc2cnnn2CCCCOC(C)=O)c1=O |  | > 100
42 | O=C(N/C(=C/c1cccc([N+](=O)[O-])c1)c1nc2ccc(Cl)cc2[nH]1)c1ccccc1 |  | > 100
43 | O=C(/C=C\n1cnc(-c2cc(C(F)(F)F)cc(C(F)(F)F)c2)n1)N1CC(F)(F)C1 | 0.565 | 8
44 | COc1cc2c3c(c1OC)C(=O)C=C3N(S(=O)(=O)c1ccc(C)cc1)CC2 |  | > 100
45 | Cc1ccc(O)c(NC2=C(Cl)C(=O)N(Cc3ccccc3)C2=O)c1 | 97.1 | > 100
46 | Cc1ccc(/S(Cc2ccccc2)=N\S(=O)(=O)c2ccc(C)cc2)cc1 (configuration not stated) |  | > 100
47 | CCOC(=O)c1nc2cc(C(F)(F)F)ccc2nc1Oc1ccc(F)cc1 |  | > 100
48 | C/C(O)=C(\C=NC(=S)c1ccncc1)C(=O)Nc1ccccc1C |  | > 100
49 | C=CC[C@]1(C2=NC(C)(C)CO2)c2ccccc2-c2ccccc2[C@H]1C(C)=O |  | 41.9
50 | CN1CCN(CCCOc2cccc3nc(Nc4ccc(F)c(F)c4)ccc23)CC1 | 3.93 | 8.48
51 | CC[n+]1c(/C=C/c2ccc(N(CCCl)CCCl)cc2)ccc2cc(I)ccc21 |  | 5.67
